# In the supplement of paper PMC4166925:
# ± gives the standard deviation of the averaged measurements. Over roughly 33,000 sequences, “E-score (dimensionless, -0.5 to 0.5)” has its median near -0.046; the highest 2% begin near 0.36. Some of the results follow.
# System: T1, SpTbr T-box DNA-binding domain (GST fusion)
# T1 sequence: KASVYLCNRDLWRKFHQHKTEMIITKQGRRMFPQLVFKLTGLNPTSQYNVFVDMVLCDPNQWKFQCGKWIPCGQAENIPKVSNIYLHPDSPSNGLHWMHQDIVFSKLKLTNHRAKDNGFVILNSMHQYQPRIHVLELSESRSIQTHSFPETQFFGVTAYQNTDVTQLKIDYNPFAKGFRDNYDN
# Test: PBM E-score of 8-mer (E-score (dimensionless, -0.5 to 0.5)); Tbr is Tbrain of the sea star Patiria miniata (Pm) or the sea urchin Strongylocentrotus purpuratus (Sp); higher = stronger binding preference; most listed sequences are background and not binding sites
# Settings: the construct has about 5 more residues each side
# Outline: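 Expression of GST-fused Tbr T-box DNA-binding domains, each holding the full T-box plus roughly five flanking residues, was carried out in BL21 E. coli at 20 °C, with purification by glutathione affinity chromatography. Universal Agilent arrays made double-stranded by primer extension were incubated with the protein at 200 nM in PBS (pH 7.5), then scanned and quantified. All ungapped 8-mers were scored from probe intensities, and each received an enrichment E-score from the Universal PBM Analysis Suite, averaged over duplicate arrays.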
row,Sequence,PBM E-score of 8-mer
1,AAAGCCGT,0.0766 ± 0.0087
2,CTGAATGA,-0.0898 ± 0.011
3,GCACGGGC,-0.0971 ± 0.075
4,ATCTTTTA,-0.00485 ± 0.06
5,ACGCGTCT,0.118 ± 0.014
6,GACGTCAA,0.0971 ± 0.011
7,GCAAGTGC,0.282 ± 0.021
8,AACCCTAA,-0.25 ± 0.026
9,ATAGAAGG,-0.00979 ± 0.046
10,AGCCCCTG,-0.3222 ± 0.0025
11,AGTGCCCG,0.0163 ± 0.049
12,CTGCGCTC,0.0242 ± 0.021
13,AACGTAAA,-0.162 ± 0.021
14,ATGATGTG,0.244 ± 0.0031
15,ATAGGTCC,-0.0911 ± 0.074
16,AGATTTTC,-0.0543 ± 0.051
17,CGTCAGAC,0.0903 ± 0.024
18,AACGGCGC,0.129 ± 0.017
19,CGTCCGAA,-0.15 ± 0.01
20,GTCTTTTA,-0.274 ± 0.026
21,CACGGCAG,0.156 ± 0.053
22,CACCTAAC,0.387 ± 0.018

row,Sequence,PBM E-score of 8-mer
1,CTGGTTTA,-0.0997 ± 0.028
2,TCTCGACA,0.281 ± 0.025
3,AGTACACA,0.128 ± 0.039
4,GCTTTCGA,0.00483 ± 0.021
5,CAACTGTA,0.0659 ± 0.076
6,CCACTTCG,0.193 ± 0.017
7,ATTGTTTC,0.00545 ± 0.088
8,ATGTCAGG,-0.167 ± 0.014
9,CCCGAGGA,-0.313 ± 0.024
10,CGACGCAG,-0.117 ± 0.065
11,TCCCGTAA,-0.116 ± 0.089
12,AGAGAAAG,0.0125 ± 0.053
13,AACAGCTG,0.0403 ± 0.023
14,AACTGCAC,-0.05739 ± 0.00026
15,GCTGAAGA,0.0463 ± 0.025
16,CAGCTACC,0.00277 ± 0.0031
17,CAATCCGG,-0.196 ± 0.11
18,ATTGCTCA,-0.124 ± 0.025
19,ATTTGCTC,-0.284 ± 0.0053
20,AGATTGTG,0.142 ± 0.044
21,AAGACAAA,-0.0111 ± 0.03
22,CAGCGGAC,-0.107 ± 0.053

row,Sequence,PBM E-score of 8-mer
1,TAAAGGTA,0.0101 ± 0.069
2,CTTTGATC,-0.228 ± 0.015
3,CACTAAAG,0.107 ± 0.035
4,ATACCTCA,0.073 ± 0.05
5,ATTACAAC,0.107 ± 0.062
6,CTGGATTC,-0.152 ± 0.045
7,ACTTCCTC,-0.118 ± 0.09
8,CAGCCCTG,-0.283 ± 0.057
9,AGCTGCCA,0.111 ± 0.099
10,CAAACTAC,-0.0974 ± 0.03
11,GCTCCCAC,-0.0817 ± 0.077
12,CGTTCCGC,-0.226 ± 0.053
13,CGCAACAG,0.0408 ± 0.041
14,CCCACTTA,0.08683 ± 0.00027
15,CCAGATCG,-0.0268 ± 0.026
16,ATTTTCAA,-0.231 ± 0.028
17,ACATAGAA,-0.0909 ± 0.069
18,AATTTACG,0.0254 ± 0.03
19,ACCAGTCG,-0.0587 ± 0.076
20,AAGTCGGC,-0.0769 ± 0.0057
21,CAGAGAAA,0.119 ± 0.0044
22,ATCGTGTC,0.173 ± 0.052

row,Sequence,PBM E-score of 8-mer
1,GGTACGAA,0.0997 ± 0.059
2,AGGCGAAT,-0.205 ± 0.13
3,GCTCACAC,0.448 ± 0.0095
4,GAGATGCA,-0.221 ± 0.028
5,ATGCTGGG,-0.196 ± 0.073
6,CAATCCCA,-0.0448 ± 0.046
7,ATACATGG,-0.0733 ± 0.039
8,CGCTTGAA,-0.24 ± 0.034
9,ACGTGAGG,0.196 ± 0.024
10,ATTAATGA,-0.134 ± 0.058
11,ATCAGAGG,-0.0774 ± 0.0049
12,AAACAATC,-0.11 ± 0.0064
13,AGGGGCGC,-0.00409 ± 0.022
14,AAGGAGCC,0.0708 ± 0.044
15,AAACTTTC,0.0486 ± 0.12
16,ACAGGCGT,0.301 ± 0.033
17,ATCTTTAA,-0.0261 ± 0.074
18,ACTTATAT,0.0004 ± 0.014
19,AGGAGGAG,-0.0652 ± 0.07
20,CTTTGATA,-0.221 ± 0.049
